Test results taken from the supplement of paper PMC7266297.
Structures can show the parent of a compound that is named as a salt. The list shows a part of the results. Repeats are few or missing, and single values can be far off.

Assays:
[1] = system: KB-3-1; assay: growth inhibition relative to DMSO control (SRB); cervical cancer cells: KB-3-1 is the parent and KB-V1 overexpresses MDR1; SRB is the sulforhodamine B stain; higher = more growth inhibition; conditions: 1 µM; 72 h
[2] = system: KB-V1; assay: as above; conditions: 1 µM; 72 h
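Further: Read-out is SRB optical density at 490 nm, with the control being wells given 0.5% DMSO vehicle, and compound added one day after cells were plated.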

Structure (SMILES): CCc1c2c(nc3ccc(OC(=O)N4CCC(N5CCCCC5)CC4)cc13)-c1cc3c(c(=O)n1C2)COC(=O)[C@]3(O)CC [Irinotecan HCl Trihydrate]
- growth inhibition [1]: 18.2%
- growth inhibition [2]: 25.2%

Structure (SMILES): COc1cc2ncnc(Oc3cccc(NC(=O)Nc4cc(C(C)(C)C(F)(F)F)on4)c3)c2cc1OC
- growth inhibition [1]: 44%
- growth inhibition [2]: < 0%

Structure (SMILES): CC(C)NCC(O)c1ccc(NS(C)(=O)=O)cc1 (stereo not given) [Sotalol]
- growth inhibition [1]: 28.7%
- growth inhibition [2]: 8.51%

Structure (SMILES): Cc1cc(C#N)cc(C)c1Oc1nc(Nc2ccc(C#N)cc2)nc(N)c1Br [Etravirine (TMC125)]
- growth inhibition [1]: < 0%
- growth inhibition [2]: 29.9%

Structure (SMILES): CN1CCN(S(=O)(=O)c2ccc(-c3cnc(N)c(C(=O)Nc4cccnc4)n3)cc2)CC1
- growth inhibition [1]: 11.7%
- growth inhibition [2]: 36.7%

Structure (SMILES): COC(=O)C1=C(C)NC(C)=C(C(=O)OCCN2CCN(C(c3ccccc3)c3ccccc3)CC2)C1c1cccc([N+](=O)[O-])c1 (stereo not given) [Manidipine]
- growth inhibition [1]: 21.6%
- growth inhibition [2]: 0.746%

Structure (SMILES): NC(=O)N1CCC(CC(=O)N2CCC([C@H]3c4ncc(Br)cc4CCc4cc(Cl)cc(Br)c43)CC2)CC1 [Lonafarnib]
- growth inhibition [1]: 49.4%
- growth inhibition [2]: 53.9%

Structure (SMILES): Oc1cc(O)cc(/C=C/c2ccc(O)c(O)c2)c1 [Piceatannol]
- growth inhibition [1]: < 0%
- growth inhibition [2]: 4.15%

Structure (SMILES): N[C@@H](CC(=O)N1CCn2c(nnc2C(F)(F)F)C1)Cc1cc(F)c(F)cc1F [Sitagliptin phosphate monohydrate]
- growth inhibition [1]: < 0%
- growth inhibition [2]: 11%

Structure (SMILES): OCCOCCN1CCN(C(c2ccccc2)c2ccc(Cl)cc2)CC1 (stereo not given) [Hydroxyzine 2HCl]
- growth inhibition [1]: < 0%
- growth inhibition [2]: < 0%

Structure (SMILES): CS(=O)(=O)c1ccc(C2=C(c3ccccc3)C(=O)OC2)cc1 [Rofecoxib]
- growth inhibition [1]: < 0%
- growth inhibition [2]: 1.22%

Structure (SMILES): CNS(=O)(=O)Cc1ccc2[nH]cc(CCN(C)C)c2c1 [Sumatriptan Succinate]
- growth inhibition [1]: 12.7%
- growth inhibition [2]: 34.4%

Structure (SMILES): COc1cccc2c1C(=O)c1c(O)c3c(c(O)c1C2=O)C[C@@](O)(C(C)=O)C[C@@H]3O[C@H]1C[C@H](N)[C@H](O)[C@H](C)O1 [Daunorubicin HCl]
- growth inhibition [1]: 9.55%
- growth inhibition [2]: 23.7%

Structure (SMILES): Nc1ncnc2c1c(-c1cnc3[nH]ccc3c1)nn2C1CCCC1
- growth inhibition [1]: 83.5%
- growth inhibition [2]: 67.6%

Structure (SMILES): Cn1c(=O)cc(N2CCC[C@@H](N)C2)n(Cc2cc(F)ccc2C#N)c1=O [Trelagliptin]
- growth inhibition [1]: 52.8%
- growth inhibition [2]: 5.56%

Structure (SMILES): C=CC[N+]1([C@H]2C[C@H]3[C@@H]4CC[C@H]5C[C@H](O)[C@@H](N6CCOCC6)C[C@]5(C)[C@H]4CC[C@]3(C)[C@H]2OC(C)=O)CCCC1 [Rocuronium Bromide]
- growth inhibition [1]: 14.4%
- growth inhibition [2]: 32.1%

Structure (SMILES): C[C@@H](O[C@H]1OCCN(Cc2n[nH]c(=O)[nH]2)[C@H]1c1ccc(F)cc1)c1cc(C(F)(F)F)cc(C(F)(F)F)c1 [Aprepitant]
- growth inhibition [1]: 38.7%
- growth inhibition [2]: 43.6%

Structure (SMILES): O=C(c1cccc(Cl)c1F)N1CCN(Cc2cccc(Nc3nccs3)n2)CC1
- growth inhibition [1]: 95.3%
- growth inhibition [2]: 84.8%

Structure (SMILES): C[C@]12CC[C@@H]3c4ccc(O)cc4CC[C@H]3[C@@H]1CCC2=O [Estrone]
- growth inhibition [1]: 26%
- growth inhibition [2]: 11%

Structure (SMILES): Cc1ccccc1C(=O)Nc1ccc(C(=O)N2CCCC(N(C)C)c3ccccc32)cc1 (stereo not given) [Mozavaptan]
- growth inhibition [1]: < 0%
- growth inhibition [2]: 31.5%

Structure (SMILES): O=C(Nc1cccc(Nc2ncc(Br)c(NCCc3cnc[nH]3)n2)c1)N1CCCC1
- growth inhibition [1]: 54.3%
- growth inhibition [2]: 28.8%

Structure (SMILES): CCCS(=O)(=O)Nc1ccc(F)c(C(=O)c2c[nH]c3ncc(Cl)cc23)c1F
- growth inhibition [1]: 31.1%
- growth inhibition [2]: 32.1%

Structure (SMILES): Clc1ccc(C2(c3ccc(-c4cn[nH]c4)cc3)CCNCC2)cc1
- growth inhibition [1]: 42.8%
- growth inhibition [2]: 39.8%

Structure (SMILES): CCCCOc1c(C(=O)c2c(F)cc(C)cc2F)c[nH]c2nncc1-2
- growth inhibition [1]: 81.6%
- growth inhibition [2]: 52.9%

Structure (SMILES): CCc1cc2c(cc1CC)CC(NC[C@H](O)c1ccc(O)c3[nH]c(=O)ccc13)C2 [Indacaterol Maleate]
- growth inhibition [1]: 9.55%
- growth inhibition [2]: 22.4%

Structure (SMILES): O=C(Nc1ccccc1Br)N[C@@H]1CCN(c2ccc(C(F)(F)F)cn2)C1
- growth inhibition [1]: 40.7%
- growth inhibition [2]: 60.6%

Structure (SMILES): CC(=O)SCC(Cc1ccccc1)C(=O)NCC(=O)OCc1ccccc1 (stereo not given) [Racecadotril]
- growth inhibition [1]: 31.3%
- growth inhibition [2]: 5.32%

Structure (SMILES): COc1nc(C)cnc1NS(=O)(=O)c1cccnc1-c1ccc(-c2nnco2)cc1 [Zibotentan (ZD4054)]
- growth inhibition [1]: 0.324%
- growth inhibition [2]: 36%

Structure (SMILES): Cc1cc(Cn2cnc3c2CC(C(=O)O)N(C(=O)C(c2ccccc2)c2ccccc2)C3)ccc1N(C)C (stereo not given)
- growth inhibition [1]: 25.5%
- growth inhibition [2]: 3.67%

Structure (SMILES): CNCCC(Oc1ccc(C(F)(F)F)cc1)c1ccccc1 (stereo not given) [Fluoxetine HCl]
- growth inhibition [1]: 11.8%
- growth inhibition [2]: 35.4%

Structure (SMILES): Oc1ccc([C@H]2COc3cc(O)ccc3C2)cc1 [Equol]
- growth inhibition [1]: 28.7%
- growth inhibition [2]: 13.5%

Structure (SMILES): CCN1/C(=C/C(C)=O)Sc2ccc(OC)cc21
- growth inhibition [1]: < 0%
- growth inhibition [2]: < 0%

Structure (SMILES): CC(C)c1cc(C(C)C)c(CC(=O)NS(=O)(=O)Oc2c(C(C)C)cccc2C(C)C)c(C(C)C)c1 [Avasimibe]
- growth inhibition [1]: < 0%
- growth inhibition [2]: < 0%

Structure (SMILES): CNC(=O)c1ccc(-c2cnc3ncc(Cc4ccc5ncccc5c4)n3n2)cc1F
- growth inhibition [1]: 15.1%
- growth inhibition [2]: 49.9%

Structure (SMILES): CN(C)C(=O)Nc1cccc(-c2ccc(N(C)C)cc2)c1 [Atglistatin]
- growth inhibition [1]: < 0%
- growth inhibition [2]: < 0%

Structure (SMILES): O=C(c1ccc(Nc2nccc(-c3cc4ccccc4s3)n2)cc1)N1CCC(N2CCCC2)CC1 [IKK-16 (IKK Inhibitor VII)]
- growth inhibition [1]: 45%
- growth inhibition [2]: 12.7%

Structure (SMILES): CCC(CC)CC1(C(=O)Nc2ccccc2SC(=O)C(C)C)CCCCC1
- growth inhibition [1]: < 0%
- growth inhibition [2]: < 0%

Structure (SMILES): CCCc1nn(C)c2c(=O)[nH]c(-c3cc(S(=O)(=O)N4CCN(C)CC4)ccc3OCC)nc12 [Sildenafil Citrate]
- growth inhibition [1]: 10.6%
- growth inhibition [2]: 39.6%

Structure (SMILES): CN(C)CC(c1ccc(O)cc1)C1(O)CCCCC1 (stereo not given) [Desvenlafaxine]
- growth inhibition [1]: 17.1%
- growth inhibition [2]: < 0%

Structure (SMILES): NC(=O)c1ncn([C@@H]2O[C@H](CO)[C@@H](O)[C@H]2O)c1N [Acadesine]
- growth inhibition [1]: 52.9%
- growth inhibition [2]: 22.5%

Structure (SMILES): COc1ccc(Cl)cc1NC(=O)Nc1cc(C)nc2ccccc12
- growth inhibition [1]: 52.2%
- growth inhibition [2]: 16.7%

Structure (SMILES): Cc1ccc(NCCCc2ccccc2)c(N)c1
- growth inhibition [1]: < 0%
- growth inhibition [2]: 6.64%

Structure (SMILES): CC(=O)OCC(=O)NCCCOc1cccc(CN2CCCCC2)c1 [Roxatidine Acetate HCl]
- growth inhibition [1]: 52%
- growth inhibition [2]: 23%

Structure (SMILES): C=CC(=O)Nc1cccc(Oc2nc(Nc3ccc(N4CCN(C)CC4)cc3)ncc2Cl)c1
- growth inhibition [1]: 96.2%
- growth inhibition [2]: 86%

Structure (SMILES): COc1ccc2[nH]c([S+]([O-])Cc3ncc(C)c(OC)c3C)nc2c1 (stereo not given) [Omeprazole]
- growth inhibition [1]: 10.4%
- growth inhibition [2]: 28.8%

Structure (SMILES): O=C(c1ccc(OCCCc2c[nH]cn2)cc1)C1CC1 [Ciproxifan]
- growth inhibition [1]: 21.5%
- growth inhibition [2]: < 0%

Structure (SMILES): CNCCCC12CCC(c3ccccc31)c1ccccc12 [Maprotiline HCl]
- growth inhibition [1]: 32.9%
- growth inhibition [2]: 12.9%

Structure (SMILES): Cc1ccc(C(=O)Nc2cccc(C(F)(F)F)c2)cc1Nc1nc(-c2cccnc2)nc2c1cnn2C
- growth inhibition [1]: 8.14%
- growth inhibition [2]: 10.3%

Structure (SMILES): NC(=O)Nc1sc(-c2ccc(F)cc2)cc1C(N)=O
- growth inhibition [1]: 28%
- growth inhibition [2]: 8%

Structure (SMILES): CC(C)[C@H]1CC[C@H](C(=O)N[C@H](Cc2ccccc2)C(=O)O)CC1 [Nateglinide]
- growth inhibition [1]: < 0%
- growth inhibition [2]: 3.19%

Structure (SMILES): CCc1cc2c(cc1N1CCC(N3CCOCC3)CC1)C(C)(C)c1[nH]c3cc(C#N)ccc3c1C2=O
- growth inhibition [1]: < 0%
- growth inhibition [2]: 3.12%

Structure (SMILES): O=C1CCc2cc(OCCCCc3nnnn3C3CCCCC3)ccc2N1 [Cilostazol]
- growth inhibition [1]: 11%
- growth inhibition [2]: 32.9%

Structure (SMILES): COc1cc2c(cc1OC)CC(=O)N(CCCN(C)C[C@H]1Cc3cc(OC)c(OC)cc31)CC2 [Ivabradine HCl]
- growth inhibition [1]: 21.6%
- growth inhibition [2]: 19.9%

Structure (SMILES): C/C(=C\C(=O)Nc1ccccc1C(=O)O)c1ccc2ccccc2c1
- growth inhibition [1]: 35%
- growth inhibition [2]: 37.6%

Structure (SMILES): CC[C@H]1OC(=O)[C@H](C)[C@@H](O[C@H]2C[C@@](C)(OC)[C@@H](O)[C@H](C)O2)[C@H](C)[C@@H](O[C@@H]2O[C@H](C)C[C@H](N(C)C)[C@H]2O)[C@](C)(OC)C[C@@H](C)C(=O)[C@H](C)[C@@H](O)[C@]1(C)O [Clarithromycin]
- growth inhibition [1]: 30.4%
- growth inhibition [2]: 9.57%

Structure (SMILES): O=C(Nc1ccccc1)Nc1ccc(-c2ccc(C(=O)[C@@H]3CCC[C@H]3C(=O)O)cc2)cc1
- growth inhibition [1]: < 0%
- growth inhibition [2]: < 0%

Structure (SMILES): O=C1NC(=O)/C(=C/c2ccc(-c3ccc(F)cc3O)o2)S1
- growth inhibition [1]: < 0%
- growth inhibition [2]: < 0%

Structure (SMILES): O=C(NC[C@H]1CN(c2ccc(N3CCOCC3=O)cc2)C(=O)O1)c1ccc(Cl)s1 [Rivaroxaban]
- growth inhibition [1]: < 0%
- growth inhibition [2]: 18.5%

Structure (SMILES): CNC(=C[N+](=O)[O-])NCCSCc1csc(CN(C)C)n1 [Nizatidine]
- growth inhibition [1]: 45.3%
- growth inhibition [2]: 25.2%

Structure (SMILES): COc1ccc(F)c(F)c1C(=O)c1cnc(NC2CCN(S(C)(=O)=O)CC2)nc1N
- growth inhibition [1]: < 0%
- growth inhibition [2]: < 0%

Structure (SMILES): COc1ccnc2[nH]cc(C(=O)C(=O)N3CCN(C(=O)c4ccccc4)C[C@H]3C)c12
- growth inhibition [1]: < 0%
- growth inhibition [2]: 4.26%

Structure (SMILES): O=C(NCc1cccc(O)c1)Nc1nc(-c2ccncc2)cs1
- growth inhibition [1]: 52.9%
- growth inhibition [2]: 81.8%

Structure (SMILES): COc1ccc(C2=N[C@@H](c3ccc(Cl)cc3)[C@@H](c3ccc(Cl)cc3)N2C(=O)N2CCNC(=O)C2)c(OC(C)C)c1 [Nutlin-3]
- growth inhibition [1]: 14.3%
- growth inhibition [2]: 35.3%

Structure (SMILES): c1ccc2c(Oc3nc(Nc4ccc(N5CCOCC5)cc4)c4ncn(C5CCCCC5)c4n3)cccc2c1 [Purmorphamine]
- growth inhibition [1]: < 0%
- growth inhibition [2]: 4.25%

Structure (SMILES): O=c1ncn2nc(Sc3ccc(F)cc3F)ccc2c1-c1c(Cl)cccc1Cl
- growth inhibition [1]: 21.2%
- growth inhibition [2]: 43%

Structure (SMILES): Nc1ncnc2n[nH]c(Nc3ccc(F)cc3)c12
- growth inhibition [1]: 56.1%
- growth inhibition [2]: 1.85%

Structure (SMILES): C[C@H](Cc1cc2c(c(C(N)=O)c1)N(CCCO)CC2)NCCOc1ccccc1OCC(F)(F)F [Silodosin]
- growth inhibition [1]: 31.8%
- growth inhibition [2]: 14.7%

Structure (SMILES): CC(C)C[C@H](NC(=O)[C@H](CCc1ccccc1)NC(=O)CN1CCOCC1)C(=O)N[C@@H](Cc1ccccc1)C(=O)N[C@@H](CC(C)C)C(=O)[C@@]1(C)CO1 [Carfilzomib (PR-171)]
- growth inhibition [1]: 94.1%
- growth inhibition [2]: 89.5%

Structure (SMILES): CCCNCC(O)COc1ccccc1C(=O)CCc1ccccc1 (stereo not given) [Propafenone HCl]
- growth inhibition [1]: < 0%
- growth inhibition [2]: 18.4%

Structure (SMILES): Cc1ccc([N+](=O)[O-])cc1S(=O)(=O)N(C)/N=C/c1cnc2ccc(Br)cn12
- growth inhibition [1]: 99.4%
- growth inhibition [2]: 98.4%
